Experimental data from PubChem BioAssay AID488969 (Vanderbilt High Throughput Screening Facility, 2010).
The full ranking holds about 110,000 compounds; the median of “z-score” is about -0.1, and the highest 2% start at about 2. The list shows a part of the results.

Each molecule was assayed against Metabotropic glutamate receptor 8 (Rattus norvegicus) (UniProt P70579) (assay: rat mGluR8 modulators via GIRK flux, primary screen, cell-based, thallium flux, HTS (AID 488969)). Conditions: HEK293 rat mGluR8, GIRK (G protein-gated inwardly rectifying potassium channel) thallium flux, FluoZin2; at 10 µM; stronger effect = higher value; submaximal glutamate (EC20) added with thallium.
UniProt P70579, sequence (P70579 whole entry, looked up): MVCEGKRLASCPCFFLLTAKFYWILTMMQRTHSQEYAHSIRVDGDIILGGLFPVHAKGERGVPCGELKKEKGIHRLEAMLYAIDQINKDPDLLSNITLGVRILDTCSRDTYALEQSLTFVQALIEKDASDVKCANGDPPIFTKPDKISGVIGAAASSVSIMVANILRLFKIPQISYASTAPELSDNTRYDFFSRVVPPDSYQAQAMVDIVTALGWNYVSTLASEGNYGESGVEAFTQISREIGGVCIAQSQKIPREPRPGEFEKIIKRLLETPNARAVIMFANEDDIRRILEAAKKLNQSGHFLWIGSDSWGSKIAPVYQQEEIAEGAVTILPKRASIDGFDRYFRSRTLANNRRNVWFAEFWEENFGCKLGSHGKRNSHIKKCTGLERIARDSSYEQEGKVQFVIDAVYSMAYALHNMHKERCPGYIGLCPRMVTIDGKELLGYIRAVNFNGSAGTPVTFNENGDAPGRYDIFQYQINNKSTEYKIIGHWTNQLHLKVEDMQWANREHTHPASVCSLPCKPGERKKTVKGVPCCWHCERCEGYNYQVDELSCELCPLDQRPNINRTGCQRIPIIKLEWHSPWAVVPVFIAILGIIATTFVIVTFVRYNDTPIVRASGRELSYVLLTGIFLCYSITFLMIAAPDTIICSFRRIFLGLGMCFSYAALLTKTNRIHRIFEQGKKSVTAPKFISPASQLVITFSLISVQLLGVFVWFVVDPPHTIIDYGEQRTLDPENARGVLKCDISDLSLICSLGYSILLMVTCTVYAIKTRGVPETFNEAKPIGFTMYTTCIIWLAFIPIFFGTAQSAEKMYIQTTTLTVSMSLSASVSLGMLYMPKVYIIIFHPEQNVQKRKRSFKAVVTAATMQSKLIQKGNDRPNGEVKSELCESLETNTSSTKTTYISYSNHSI
In the case of `O=C(CCc1ccccc1)Nc1ccc(Cl)cn1`, the z-score is reported as -0.45.
Work on `COc1ccc(Cn2c(O)c(C=Nc3ccc(OC)cc3)c3ccccc3c2=O)cc1` yielded a z-score of -0.178.
`CN1C(=O)CSc2ccc(NC(=O)NCCC3=CCCCC3)cc21` showed a z-score of -0.0569.
`CCN(CC)S(=O)(=O)c1cccc(C(=O)Nc2cccc(C)c2)c1` was tested, and the z-score was -0.358.
For `O=c1c2c([nH]c3ccccc13)CCCC2`, the z-score was -0.224.
`CCC(C)(C)n1nnnc1C(c1cc2cc(C)cc(C)c2[nH]c1=O)N1CCN(C(=O)c2ccco2)CC1` (centres undefined) was tested, and the z-score was -0.323.
With `C=CCNc1nc2c(c(=O)n(C)c(=O)n2C)n1Cc1ccc(F)cc1` the z-score was -0.0556.
`Cc1cccc(N2C(=N)SCC2=O)c1C` gave a z-score of -0.273.
Work on `CCOc1ccccc1NC(=O)/C(C#N)=C/c1c(C)nn(-c2ccccc2)c1Cl` yielded a z-score of -0.199.
Work on `Cc1ccc(C(=O)Nc2ccc3c(c2)OCO3)o1` yielded a z-score of -0.231.
For `Cc1cccc(-n2c(SCC(N)=O)nnc2-c2ccccn2)c1C`, the z-score was -0.0423.
`CCc1ccc2c(CN3CCN(S(=O)(=O)c4ccc5c(c4)OCCO5)CC3)cc(=O)oc2c1` gave a z-score of -0.0216.
`CCOc1cc(/C=N/N=C(/N)c2nonc2N)cc(Br)c1OCc1ccc(Cl)cc1` showed a z-score of -0.226.
In the case of `Clc1cccc(N2CCN(Cc3nc(-c4ccccc4)no3)CC2)c1`, the z-score is reported as -0.21.
In the case of `N/C(=N\OC(=O)COc1ccc2ccccc2c1)c1ccccn1`, the z-score is reported as -0.843.
`Cc1ccc(S(=O)(=O)N2CCN(C(=O)COc3ccc(NC(=O)c4ccco4)cc3)CC2)cc1` was tested, and the z-score was -0.0761.
With `O=C(CCn1c(=O)oc2ccccc21)NC1=NCCS1` the z-score was -1.31.
With `COc1ccc(OC)c(NC(=O)C2CCCN(S(=O)(=O)c3cccc4nonc34)C2)c1` (centres undefined) the z-score was 0.481.
`CC(C)CCCC(C)NS(=O)(=O)Cc1ccccc1` (centres undefined) gave a z-score of -0.305.
`COC(=O)c1ccc(CNC(=O)c2ccc(COc3ccccc3)cc2)cc1` gave a z-score of -0.175.
`CC(C)C(c1nnnn1CC1CCCO1)N1CCN(Cc2ccc3c(c2)OCO3)CC1` (centres undefined) was tested, and the z-score was -0.153.
Work on `Cc1ccc(N2CCN(CCc3nc4cc(NS(C)(=O)=O)ccc4n3C)CC2)cc1` yielded a z-score of -1.79.
In the case of `O=C(CCCCCNc1nc(=S)[nH]c2ccccc12)NCCc1ccccc1`, the z-score is reported as 0.302.
With `COc1ccc(CCNC(=O)CCSc2nc(-c3ccco3)cc(C(F)(F)F)n2)cc1OC` the z-score was -2.59.
`Clc1ccc2nc(CSc3nnc4ccccn34)cn2c1` showed a z-score of -0.129.
`CCN(CC)C(=O)Oc1ccc(NC(C)=O)cc1` showed a z-score of 0.0908.
`N#Cc1ccccc1N=Cc1ccc(Br)cc1` showed a z-score of -0.164.
`O=C1c2ccccc2C(=O)N1CCCc1c[nH]c2ccccc12` showed a z-score of -0.611.
`Cc1ccc(NC(=O)CS(=O)CC(=O)NCC2CCCO2)cc1` (centres undefined) showed a z-score of 0.0713.
`O=C1CCc2cc(S(=O)(=O)NC(Cc3ccccc3)C(=O)NC3CCCC3)ccc2N1` (centres undefined) showed a z-score of 0.0438.
Molecule `CCOC(=O)CSc1ncc(-c2ccc([N+](=O)[O-])cc2)[nH]1` has a z-score of -0.303.
Molecule `O=C(CN1C(=O)CSC1=O)Nc1ccccc1N1CCOCC1` has a z-score of -0.141.
Molecule `CC(=O)c1c(C)[nH]c(C(=O)Nc2ccc3c(c2)OCCO3)c1C` has a z-score of -0.0446.
`CCN(Cc1cc2ccccc2[nH]c1=O)S(=O)(=O)c1ccccc1` showed a z-score of -0.028.
In the case of `Cc1ccc(NC(=O)CN2C(=O)C3CCCCN3C(=O)c3ccccc32)cc1` (centres undefined), the z-score is reported as 0.0289.
`CCOC(=O)c1nnc(-c2ccc(C)cc2)nc1Sc1ccccc1Cl` showed a z-score of 0.00195.
With `CCOc1ccc(-n2nnc3c(=O)n(C/C=C/c4ccccc4)cnc32)cc1` the z-score was 0.793.
For `COc1ccc(C(C)(C)C)cc1S(=O)(=O)N1CCC(C(N)=O)CC1`, the z-score was 0.402.
`O=C1C=C(O)CC(c2cccs2)C1` (centres undefined) gave a z-score of -0.0555.
Molecule `COc1ccc(-c2csc(Nc3ncccc3C)n2)cc1OC` has a z-score of 0.0742.
In the case of `Cc1c(C(=O)N/N=C/c2ccc(O)c(Br)c2)sc(N)c1C#N`, the z-score is reported as -0.187.
In the case of `Cc1ccc(C#N)c(SCc2nnc(-c3ccc(Cl)cc3)o2)n1`, the z-score is reported as -0.201.
Work on `Clc1nc(-c2ccccc2)cc(-c2ccccc2)n1` yielded a z-score of 0.17.
For `CCN(CC)CCCNC(=O)N[C@@H](Cc1ccccc1)C(=O)O`, the z-score was -0.181.
Molecule `CCCCCCCC(=O)NNC(=O)CCC(=O)O` has a z-score of 0.0901.
Molecule `CCOC(=O)c1ccc(CSc2nnc(N)s2)cc1` has a z-score of -0.194.
`CCCCSc1nc(O)c(C2OC(=O)c3c2ccc(OC)c3OC)c(=O)n1C` (centres undefined) gave a z-score of -0.59.
`COc1cccc(NC(=O)NC2(C(F)(F)F)Oc3ccccc3O2)c1` was tested, and the z-score was 0.97.
`COc1ccc(C(C(=O)NCc2ccccc2)N(Cc2cccs2)C(=O)c2cnccn2)cc1` (centres undefined) was tested, and the z-score was -0.354.
Work on `CC(/C=N/NC(=O)CSc1nc(C)cc(C)n1)=C\c1ccccc1` yielded a z-score of -0.395.
Molecule `O=C(NCc1cccnc1)/C(=C/c1ccco1)NC(=O)c1ccccc1` has a z-score of -0.224.
Molecule `CC1=NOC(=O)/C1=C/c1ccc(-c2ccc(Cl)cc2)o1` has a z-score of -0.101.
`CN(C)c1ccc(CN(C)C2CCCCC2)cc1` was tested, and the z-score was -0.424.
`CC1CCCC(C)N1C(=O)c1ccccc1Nc1ccc(SC(F)F)cc1` (centres undefined) showed a z-score of -0.0764.
For `COc1cccc(-c2nnc(SCc3ccc(C#N)cc3)n2Cc2ccco2)c1`, the z-score was 0.343.
In the case of `O=C(Cn1c(C(=O)NCCCN2CCOCC2)cc2sccc21)c1ccccc1`, the z-score is reported as -0.13.
Work on `CCCCOCP(=O)(CC)COCCCC` yielded a z-score of 0.0954.
Work on `COc1ccccc1OCc1ccc(C(=O)Nc2ccncc2)o1` yielded a z-score of 0.198.
In the case of `CCCn1c(N)c(C(c2ccc(OC)cc2)N2CCN(c3ccccc3)CC2)c(=O)[nH]c1=O` (centres undefined), the z-score is reported as 0.035.
For `COc1ccc(NC(=S)NNC(=O)c2ccccc2OC(F)F)cc1`, the z-score was 0.204.
`COc1cc(/C=C2\C(=O)N(CCC#N)N=C2C)ccc1OCC(=O)Nc1ccccc1` showed a z-score of -1.
`O=C(c1ccc2c(c1)OCCO2)N(c1ccccn1)C1CCCCC1` showed a z-score of 0.0462.
With `CCn1c(SCC(=O)Nc2ccc(C(=O)OC)cc2)nnc1-c1cccs1` the z-score was -0.248.
`CCN(CC)C(=O)c1ccc2c(=O)n(CCOC)c(=S)[nH]c2c1` showed a z-score of -0.0865.
Molecule `O=C1c2ccccc2C(=O)N1CCc1csc(-c2ccccc2)n1` has a z-score of -0.0668.
For `CC(=O)NC(CCS(C)(=O)=O)C(=O)Nc1ccccc1` (centres undefined), the z-score was -0.0623.
`CSCCC(NC(=O)c1occc1C)C(=O)O` (centres undefined) gave a z-score of -0.0531.
With `COc1ccccc1NC(=O)c1ccccc1SC` the z-score was 0.302.
`Cc1cccc(N2CCN(C(=S)NCCc3ccccc3)CC2)c1C` was tested, and the z-score was -0.289.
Molecule `CCCCCNC(=O)CCc1ccccc1` has a z-score of 0.18.
In the case of `CCOC(=O)CSc1nc2sc3c(c2c(=O)n1C1CCCCC1)CCN(C)C3`, the z-score is reported as 0.832.
In the case of `O=C(CCS(=O)(=O)c1ccc(Br)cc1)Nc1cc(F)ccc1F`, the z-score is reported as -0.0256.
For `Cc1cc(C(=O)Nc2sc3c(c2C#N)CCC3)no1`, the z-score was -0.0664.
Molecule `Cc1ccc(S(=O)(=O)Nc2cccc3c2CCCC3)cc1` has a z-score of -0.724.
For `O=C(N/N=C\c1ccccc1OCc1ccccc1)c1ccco1`, the z-score was -0.634.
For `Cc1nnc(SCC(=O)N2CCCc3ccccc32)[nH]c1=O`, the z-score was -0.411.
Molecule `c1cc(-c2nnc3n2CCC3)[nH]n1` has a z-score of 0.305.
In the case of `CC(C)(C#CCN1CCCCC1)OCCOC(c1ccccc1)c1ccccc1`, the z-score is reported as -0.206.
`CCN(CC)S(=O)(=O)c1ccc(-c2nnc(SCC(=O)Nc3ccc(OC)c(OC)c3)o2)cc1` gave a z-score of 0.581.
For `O=C(/C=C1\SC(=O)N(CC(=O)Nc2ccc(F)cc2)C1=O)Nc1ccc(Cl)cc1`, the z-score was -0.227.
For `Cc1ncn(C23CC4CC(CC(O)(C4)C2)C3)n1`, the z-score was -0.328.
Molecule `CCOc1ccccc1N1CCN(Cc2cccc(OC)c2O)CC1` has a z-score of -0.0607.
Molecule `C=CCN=C1SCC(=O)N1S(=O)(=O)c1ccc(C)cc1` has a z-score of 0.0451.
With `O=C(c1cccc(F)c1)N1CCc2ccccc2C1` the z-score was -0.184.
Molecule `CC1OC2C(OC1C)N(S(C)(=O)=O)CCN2S(C)(=O)=O` (centres undefined) has a z-score of 0.246.
Molecule `Cn1nnnc1SCC(=O)N(C1CCCCC1)C1CCCCC1` has a z-score of 2.45.
`c1ccc(Nc2cc(Nc3ccccc3)[nH]n2)cc1` showed a z-score of 0.781.
With `Cc1ccc(N/N=C2\COC(C)(C)CC2=O)cc1` the z-score was -0.116.
Work on `O=[N+]([O-])c1cccnc1N1CCCCC1` yielded a z-score of -0.00595.
Molecule `CCc1ccc(NC(=O)CN2C(=O)CSC2=O)cc1` has a z-score of -0.183.
`CCOC(=O)C(C(=O)OCC)N(C#N)c1nc(SC)nc(N(C)C)n1` was tested, and the z-score was -0.541.
In the case of `Cc1ccc2c(c1)n([O-])c1c([n+]2=O)CCCC1`, the z-score is reported as -0.166.
With `O=C(COc1ccc(Cl)cc1Cl)NC(=O)N1CCCCC1` the z-score was 1.09.
`CCCn1c(SCC(=O)N2CCN(c3ccc(OC)cc3)CC2)nc2c1c(=O)n(C)c(=O)n2C` gave a z-score of -0.485.
Work on `CCOC(=O)C(NC(=O)Cc1ccccc1)(Nc1cc(C)on1)C(F)(F)F` (centres undefined) yielded a z-score of -0.041.
Molecule `CCOC(=O)/C(C#N)=C1/SC(CC)C(=O)N1c1ccc(Br)cc1` (centres undefined) has a z-score of -1.15.
`Cc1nn(Cc2ccc(Cl)cc2Cl)c(C)c1NC(=O)CCl` gave a z-score of 0.885.
`CCn1cc(C(=O)NCc2ccc3c(c2)OCO3)c(=O)c2cc(F)c(N3CCN(C)CC3)cc21` was tested, and the z-score was -0.452.
In the case of `O=C(O)c1ccc(NS(=O)(=O)c2cccc3cccnc23)cc1`, the z-score is reported as -0.277.
`CCc1ccc2nc3sc(C(=O)N4CCc5ccccc54)c(N)c3cc2c1` showed a z-score of -0.0724.
For `COc1ccc(C(=O)NC(=S)Nc2ccccc2N2CCOCC2)cc1Br`, the z-score was 0.169.
With `CCOC(=O)c1cc(C)sc1/N=C/C1=C(O)CCCC1=O` the z-score was -0.139.
`COc1ccccc1/C=C/C=N/NC(=O)CCC1C(=O)NN=C1C` (centres undefined) gave a z-score of -0.661.
Molecule `CC(=O)c1cccc(S(=O)(=O)Nc2cccc(S(=O)(=O)NC3=NCCC3)c2)c1` has a z-score of -0.155.
With `CSc1ccc(Cn2nnc(C(=O)Nc3ccc(C)c(C)c3)c2N)cc1` the z-score was -0.13.
`COc1cc(C(=O)OCCN2CCOCC2)ccc1O` showed a z-score of -1.44.
`Cc1c(C)n(C)c2ccc([N+](=O)[O-])cc12` gave a z-score of -0.0554.
Molecule `COc1ccc(-n2c(=O)c3c4c(sc3n3c(=S)[nH]nc23)CCCC4)cc1` has a z-score of 0.825.
With `CCCN(C(=O)CSc1nnc(-c2ccoc2C)n1N)C1CCS(=O)(=O)C1` (centres undefined) the z-score was -0.719.
With `CCN(CC)S(=O)(=O)c1ccc(C(=O)Nc2cc(C)cc(C)c2)cc1` the z-score was -0.47.
In the case of `CCC(=O)NNc1cc(=O)c2c(=O)n(C)c(=O)n(C)c2[nH]1`, the z-score is reported as 0.0356.
Work on `CCN(CC)C(=O)C1CCCN(Cc2sccc2C)C1` (centres undefined) yielded a z-score of -0.0538.
`CC1CCN(C(=O)c2cc(-c3ccccc3O)on2)CC1` showed a z-score of -0.827.
`COc1ccc(/C=C2\SC(=O)N(CCNC(=O)C3CCN(S(=O)(=O)c4cccs4)CC3)C2=O)cc1` showed a z-score of 0.617.
